Data taken from PMC12032302, “A20 attenuates oxidized self-DNA-mediated inflammation in acute kidney injury” (Signal Transduction and Targeted Therapy, 2025).
These are yes or no findings as the source states them, for the method shown. In cells and extracts the contact can be indirect. Some binding calls cover weakened binding; strength is not graded here. Where a sequence is shown, tags or fusion partners need not be part of it.

Protein sequences, listed by entry. Tags and fused reporters are not part of them. Lines headed by an entry give the natural chain unless they say otherwise; changes in a name come on top.
UniProt Q9ES74: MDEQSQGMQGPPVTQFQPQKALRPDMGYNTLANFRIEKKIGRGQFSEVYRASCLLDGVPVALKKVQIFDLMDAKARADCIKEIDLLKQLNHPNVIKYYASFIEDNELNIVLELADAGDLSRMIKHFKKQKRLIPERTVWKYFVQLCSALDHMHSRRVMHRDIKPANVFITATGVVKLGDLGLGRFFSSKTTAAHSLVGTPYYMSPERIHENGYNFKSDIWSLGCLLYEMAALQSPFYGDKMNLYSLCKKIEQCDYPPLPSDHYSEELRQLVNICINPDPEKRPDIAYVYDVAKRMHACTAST

What was measured:
Assay in all cases: co-IP; HEK293T transiently transfected; mild lysis buffer; anti-HA overnight at 4 °C, magnetic beads; immunoblot
[1] = target: HA-NEK7 K130A (mouse) (mouse) (UniProt Q9ES74)
[2] = target: NEK7 K293R (mouse) (mouse) (UniProt Q9ES74)
[3] = target: HA-NEK7 (mouse NIMA-related kinase 7, wild type) (mouse) (UniProt Q9ES74)
[4] = target: HA-NEK7 L132R (mouse) (mouse) (UniProt Q9ES74)
[5] = target: HA-NEK7 K140A (mouse) (mouse) (UniProt Q9ES74)
[6] = target: HA-Tri-MUT-NEK7 (mouse NEK7 K130A, L132R, K140A) (mouse) (UniProt Q9ES74)

B1: FLAG-A20 (mouse A20, encoded by Tnfaip3) (enzyme, UniProt Q60769 1-775)
chain: MAEQLLPQALYLSNMRKAVKIRERTPEDIFKPTNGIIYHFKTMHRYTLEMFRTCQFCPQFREIIHKALIDRSVQASLESQKKLNWCREVRKLVALKTNGDGNCLMHAACQYMWGVQDTDLVLRKALCSTLKETDTRNFKFRWQLESLKSQEFVETGLCYDTRNWNDEWDNLVKMASADTPAARSGLQYNSLEEIHIFVLSNILRRPIIVISDKMLRSLESGSNFAPLKVGGIYLPLHWPAQECYRYPIVLGYDSQHFVPLVTLKDSGPELRAVPLVNRDRGRFEDLKVHFLTDPENEMKEKLLKEYLIVMEIPVQGWDHGTTHLINAAKLDEANLPKEINLVDDYFELVQHEYKKWQENSDQARRAAHAQNPLEPSTPQLSLMDIKCETPNCPFFMSVNTQPLCHECSERRQKNQSKLPKLNSKLGPEGLPGVGLGSSNWSPEETAGGPHSAPPTAPSLFLFSETTAMKCRSPGCPFTLNVQHNGFCERCHARQINASHTADPGKCQACLQDVTRTFNGICSTCFKRTTAEPSSSLTSSIPASCHQRSKSDPSQLIQSLTPHSCHRTGNVSPSGCLSQAARTPGDRAGTSKCRKAGCMYFGTPENKGFCTLCFIEYRENKQSVTASEKAGSPAPRFQNNVPCLGRECGTLGSTMFEGYCQKCFIEAQNQRFHEARRTEEQLRSSQHRDMPRTTQVASRLKCARASCKNILACRSEELCMECQHLSQRVGSVAHRGEPTPEEPPKQRCRAPACDHFGNAKCNGYCNECYQFKQMYG
binding [1]: binds | binding [2]: binds | binding [3]: binds | binding [4]: binds | binding [5]: binds | binding [6]: no binding
